More than one record can exist for a structure, and the calls need not agree.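 How to read the values: 0–100, growth inhibition (40 = 60% inhibited); 0, no net growth; -100 to 0, cell death (-40 = 40% of starting cells died; -100 = all dead).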 Not every entry of the source has a single result; some have several. They are shown here; other results are not. Rule for the calls: active = growth percent below 10; inactive = the rest. An entry can have further records. The screen tested this drug many times, at the concentration stated with the values; one value stands for one run. Brackets with × count equal records among those shown.
System: SK-MEL-28 melanoma
Experiment: NCI-60 one-dose screen, 48 h (100 = growth as untreated, 0 = no growth, -100 = all killed)
Settings: 0.25 µM

## COc1cccc2c1C(=O)c1c(O)c3c(c(O)c1C2=O)C[C@@](O)(C(=O)CO)C[C@@H]3OC1CC(N)C(O)C(C)O1 (stereo not given in full)
Runs of 2007
  growth: inactive: 51.6, 68.3, 44.7, 50.4, 67, 63.2, 70.7, 64.6, 58.7, 68.2, 69.3, 43.6, 65.3, 68.6, 61, 55.4, 61.7, 60, 73.1, 61.3, 68.4, 79.9, 68, 69, 72.7, 66.1, 67.5, 10.8, 73.6 (2×), 71.3, 46.5, 41.3, 48.9, 63.8, 58.3, 58, 45.7, 56.1, 88.5, 63.3%
Runs of 2008
  growth: inactive: 80.3, 71.9, 57.3, 66.2, 73.7, 60.9, 71.5, 63.9, 81.8, 72.5, 61.4, 60.8, 22.5, 44, 56.7, 73.2, 53.3, 67.5, 44.8, 59.5, 68.9 (2×), 60.6, 50.1, 33.6, 46.9, 121, 59.3, 26.9, 18.5, 66, 20.5, 55.2, 64.6, 63.2, 57.5, 35.7, 40.2, 41.3, 68.7, 66.6, 62.5, 67.3, 70.8, 87.9, 80.7, 42.8, 45.9, 73.5, 45.3, 58.1, 49.4, 76.1% and active: 4.26%
Runs of 2009
  growth: inactive: 59.6 (2×), 55.5, 53.5, 54.3, 75.9, 68.1, 65.3, 72.6 (2×), 68.4, 69.3, 74.3, 50.3, 78.2, 71.6, 65.2, 74, 62.6, 67.9, 68, 66.1 (2×), 66.6, 40.6, 54, 61.4, 55.9, 65.4, 74.7 (2×), 70.6 (2×), 51.6, 72, 66.3, 67.4, 58, 73.9, 67.2, 56.5, 63.9, 59.3, 63 (2×), 64.1, 59.2, 58.7, 71.8, 61.3, 60.8, 47.7, 71.7, 63.8, 52.8, 49.8, 86.8, 68.5, 61, 78.4, 72.9, 61.6, 64.8, 53.7%
Runs of 2010
  growth: inactive: 72.2 (3×), 84.4, 64.2, 70.2 (4×), 72.6, 68.2, 74.6 (2×), 83.8, 68.9, 64.7 (2×), 65.6, 65, 64.3, 59.9, 60.2 (2×), 75.4, 55, 63.2 (2×), 58.5 (3×), 64, 66.2, 60.3 (2×), 76.8, 45.2, 77.5, 69.7, 66.9, 69.2, 59.1, 67.5, 70.8, 66.5, 68.4, 70, 82, 82.8, 65.3, 66, 70.5%
Runs of 2011
  growth: inactive: 77 (2×), 76.9, 70.7, 77.5, 77.1, 71.8, 72.8, 71.7, 59.1, 72.7, 65.3, 79.7, 64, 79.1, 78.2, 80.4, 64.7, 79.9, 81.7, 80.9, 79.2, 88.6, 81.8, 88, 68.4, 80.1, 77.8, 56.1, 50.4, 66.7, 72.5, 53.1, 51.6, 56.7, 59.3, 58.1, 53, 59.9, 57.1, 56.9, 56.4, 59.2, 61.2, 52.1, 47, 49.9, 67.5, 69.7, 56.6, 49.5, 64.3, 68.1, 66.2, 55.6, 65.9, 73.4, 66.6, 78.4, 69.6, 68.3%
Runs of 2012
  growth: inactive: 61.4, 47.9, 57 (2×), 58.8, 66.5, 70.5 (2×), 72.2, 75.6, 52.1, 61 (2×), 63, 60, 68.6, 51.4, 50.6, 50.3, 53.5, 53.9, 52.5, 67.2, 60.9, 66.7, 76.1, 72.5, 66.2, 77, 79.1, 74.2, 75.4, 79.9, 73.2, 80.8 (2×), 65.9, 63.9 (2×), 65.4, 46.3, 69, 64.2, 72.4, 64.7, 75.7, 71.6, 71.3, 72.1, 69.6, 78.9, 85.3, 85.2, 81.7, 74.5, 76.4, 86.4, 73.5, 68.1, 71.9, 71.8, 63.5, 64.3, 54.7, 61.2, 62.7, 64%
Runs of 2013
  growth: inactive: 66.9, 71.2, 77.2 (2×), 67.4, 72.5, 73.8 (2×), 73.2, 72.3, 79.9, 70.8, 74, 73.1 (2×), 77, 75.7 (2×), 71.3 (2×), 75.1, 77.4 (3×), 80.6 (2×), 80.7 (3×), 78.6 (2×), 81.2 (2×), 82.8, 73.4, 79.6, 81.1, 80, 69, 61.6 (2×), 77.1 (2×), 74.4, 77.3 (3×), 78.7, 67.2, 60.5, 77.5, 83.5, 69.1, 62.2, 67.9, 59.1, 64.3, 36.9, 49.8, 47.4, 46.1, 43.6, 44.4, 54.5, 53.2, 39.9, 33, 49.9, 58, 30.4%
Runs of 2014
  growth: inactive: 55.7 (2×), 52.8 (2×), 61.7, 58.7, 48.6, 63.2 (2×), 46.7, 50, 59.2, 47.7 (2×), 63.9, 48.3, 56.7, 62.3 (2×), 65.6, 72.6, 58.4, 68.1 (3×), 53.3 (2×), 49.2, 55.5, 57.2, 52.9, 54.6, 56.9 (2×), 55.9, 45.5, 41.2, 47.4, 51.8, 49.1, 50.6, 49.5, 42.9, 46.8 (2×), 49.4, 36, 24.8, 47.5, 31.2, 48.2, 46.6, 28.9, 31.7, 37.3, 40.6 (2×), 47.3, 40.5, 39.3, 34.9, 40.2, 45.1, 41.8, 69.2, 56.3, 52.4, 67.1, 60.9 (2×), 65.5, 48.8, 57.8, 54, 64.1, 64.5, 59.9, 67.2, 55.6, 64, 74, 61.6, 61%
Runs of 2015
  growth: inactive: 61.4 (2×), 56.5, 64.2, 59.3, 45.9, 59, 58.8 (2×), 50.9, 73.1 (2×), 73.4, 70.8, 44.1 (2×), 52.3, 48.1 (2×), 35.3, 45.6, 55.2 (3×), 49.9, 65.3, 58.5, 54.6, 51.3 (2×), 47.4, 61.3, 57.3, 67, 54, 51.5, 60.6 (2×), 50, 50.8, 53.9, 66.6, 47.2, 38.8, 56.4, 55.4, 51.2 (2×), 53.4, 64.1, 53.8, 61 (2×), 50.1, 52.2, 60.9, 76.3, 81.1, 61.6, 55.9, 73.7, 54.3, 55, 63.8, 58, 70.2, 68, 71.7, 55.7 (2×), 63.7, 69.2, 53, 58.7, 69, 50.7, 68.3, 63.9, 64.6, 65.5%
Runs of 2016
  growth: inactive: 52.2, 62.3, 66.7 (2×), 71.9, 73.2, 49.2, 71.2, 73.8, 57.1, 61.7, 58.7, 62.2, 72.7, 53, 67.2 (2×), 54, 65.4 (2×), 61.3, 68.3 (2×), 77.7, 60.6, 48.2, 61.9, 62.1, 59.4, 57.3, 42.6, 60.9, 48.9, 50.6, 46.4, 56.4, 54.6, 48.4, 53.5, 60.1, 68.4, 76.4 (3×), 55.9, 73.4 (2×), 65.5, 72.5 (2×), 75.7 (2×), 66.9, 58.6, 66.1, 65.3, 73.6, 73.9, 72.1, 78.4 (2×), 78.9, 76.1, 70.2, 73.5, 69.7, 78.5, 79.4, 67.5, 79.3, 80.5, 77.1, 78.2, 74.5, 71.8, 64.1, 71.3, 78, 64.3, 67, 68, 69.1, 77.3, 74.3, 76.3%
Runs of 2017
  growth: inactive: 76.7, 65.2, 67.4, 56.5 (3×), 61.4, 59.3, 64.8, 62.3 (3×), 65.4, 59.4, 56.7, 56.9, 55.4 (2×), 65.9, 67.1, 67, 57.9, 57.5, 55.5, 59.2 (2×), 54.2, 49.2, 58.4, 60.1 (2×), 59.1, 56.2 (2×), 61.7, 54.6, 60.8 (2×), 62.9, 69.1, 64.3, 60.3, 53.4, 58.1, 71.2, 69.6, 65.1 (2×), 64.7 (2×), 64, 70.7, 71.9, 73.7, 65.7, 66.5 (2×), 57.1, 60.6 (2×), 69.7, 72.1, 58.9, 60.4, 59.8, 59.9 (2×), 55.3, 62.2, 54, 51.9, 60.9, 60, 67.2, 71.7, 78.5, 58.8, 65.5%
Runs of 2018
  growth: inactive: 69.8, 58.6, 61.8, 69.3, 63.3, 59.3, 60.4 (2×), 57.2, 68.1, 72.6, 78.9, 69.6, 74.6, 64.7, 68, 66.1, 71, 70.7, 63.8, 67.2, 66, 62.7, 67.1, 67.3, 64.1, 61.7, 67.4, 77.3, 73.4, 63.5, 66.2, 70.5, 75.1, 66.6, 59.5, 67.9, 63.2, 58.4, 68.9, 63.9, 69.7, 62.9, 62.3, 69.1, 75, 43.8, 55.6%
Runs of 2019
  growth: inactive: 63.8, 63.7, 50.9, 42.2, 54.2, 54.6, 58.6, 56.3, 61.3, 64.5, 66.6, 79.5, 74.5, 70.8, 75.4, 57.4, 64.3, 61.9, 66.7, 69.2, 62.9, 63, 64 (2×), 65.2, 64.7, 60.6, 57.2 (2×), 55.9, 58.7, 53.6, 60, 54.8, 56.6, 58.8, 73.2, 68.2, 64.1, 57.5, 65.3, 62.5, 65.6, 53.1, 51.7, 51.6%
Runs of 2020
  growth: inactive: 61 (2×), 52.2, 64.5, 59.9, 59.4, 55.8, 57.3, 62.2, 55.9, 51.9, 53.1, 59.1, 59.5, 56.6, 75.1, 61.4, 70.2, 67, 58.1, 66.2, 65.6, 68.6, 70.5%
Runs of 2021
  growth: inactive: 70.2, 80, 80.9, 70.8, 60.9, 66.5, 63.2 (2×), 69.6, 60.5, 65.4, 61.2, 58, 68.4, 58.4, 62.3 (2×), 50.5, 53.2, 59.3, 63.5, 51.3, 54.6, 56.7, 56.1, 58.2, 67.3, 72.5, 64.6, 62.1, 66.3, 66, 67.1, 67.9, 61.7, 59.5, 58.9 (2×), 60.3, 55.3, 66.1, 66.2, 65.5, 47.7, 53.9, 50, 51.5, 54.8, 40.1, 50.1, 49, 45.5, 58.5, 64.3%

Source: PubChem BioAssay (NCI)
